# Test results taken from the supplement of paper PMC3334620.
# Whole data set: some 33,000 sequences, median “E-score (-0.5 to 0.5)” near -0.016, cut for the highest 2% near 0.32. Some of the results follow.
# Molecular target: T1, Stp1 (UniProt B3LFK1)
# T1 sequence: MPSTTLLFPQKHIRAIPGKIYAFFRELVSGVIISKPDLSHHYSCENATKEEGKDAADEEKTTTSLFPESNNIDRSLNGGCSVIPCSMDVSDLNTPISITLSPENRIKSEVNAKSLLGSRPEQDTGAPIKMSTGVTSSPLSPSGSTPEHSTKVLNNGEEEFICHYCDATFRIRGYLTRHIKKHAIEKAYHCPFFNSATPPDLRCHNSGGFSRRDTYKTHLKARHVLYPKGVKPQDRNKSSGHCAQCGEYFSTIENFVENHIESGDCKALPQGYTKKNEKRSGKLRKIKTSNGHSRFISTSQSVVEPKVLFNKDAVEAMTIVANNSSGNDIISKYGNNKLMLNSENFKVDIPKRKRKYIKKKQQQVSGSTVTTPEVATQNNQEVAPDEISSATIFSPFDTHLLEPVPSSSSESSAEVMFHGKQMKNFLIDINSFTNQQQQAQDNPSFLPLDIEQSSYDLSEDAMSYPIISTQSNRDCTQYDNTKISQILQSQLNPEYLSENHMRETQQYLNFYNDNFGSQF
# Test: PBM E-score (8-mer binding enrichment) (E-score (-0.5 to 0.5)); higher = stronger / more preferred TF binding; most listed sequences are background and not binding sites
# Settings: protein concentration: 200 nM; construct: GST-full length
# Summary of the method: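 Bound GST-tagged yeast transcription factors, applied at about 100-200 nM to double-stranded universal all-10-mer Agilent arrays, were detected with fluorescent anti-GST. Scans were normalised with masliner. A modified Wilcoxon-Mann-Whitney statistic, the E-score, was assigned to each ungapped eight-base word pooled with its reverse complement by the Universal PBM Analysis Suite.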
row,Sequence,PBM E-score
1,CCGCGATA,-0.00263
2,CATTTTAA,0.251
3,AGCTCCAG,-0.232
4,CGCACGAA,0.189
5,AGCCCGAA,-0.133
6,CAAGTCGA,-0.103
7,GACTTCAA,-0.147
8,CCGGTGTC,-0.246
9,ACTTGGTG,-0.115
10,ACAGCGTG,0.0129
11,AGAGAACT,-0.139
12,ACCACTGC,-0.101
13,AGGACGCA,-0.203
14,CCCCGCGG,0.199
15,GGTCGCTA,-0.145
16,AAGCTATG,-0.229
17,GCACAACA,0.0257
18,TCGCTCCA,0.0576
19,ACTCGGAT,0.0731
20,GGTTTATA,0.0512
21,GATCGTCA,-0.204
22,AAGAGCAG,-0.111
23,GGACTGGA,-0.188
24,AGGCTATA,-0.0231
25,CATGATCA,0.125

row,Sequence,PBM E-score
1,TAAGAGTA,0.0238
2,CTGCATTA,-0.0491
3,CCAGAGGC,-0.115
4,CGACGCCC,0.0245
5,CCGCTTAA,0.164
6,ACCTGGGG,-0.285
7,GCGATCCA,0.00156
8,AGACGCCA,0.00574
9,TACCTTCA,-0.0363
10,CCAGCCAG,-0.336
11,AGATATTA,0.0622
12,ACCCTGGG,-0.26
13,AAACTCGG,-0.0615
14,ACCTCCTG,-0.302
15,CATCAGCC,-0.04
16,AACGCGGG,0.184
17,AATGAAAC,0.17
18,CACCGAGG,0.0169
19,GATCAAGA,0.124
20,GCCGCCCC,0.378
21,AAGGAATT,0.00384
22,ACTGCAGC,-0.118
23,ATCGGCAA,0.106
24,ACCGCCAC,-0.0221
25,GTACATAA,0.0315

row,Sequence,PBM E-score
1,TGTCGACA,-0.185
2,AGGTGAAG,-0.132
3,ACAGATTC,0.15
4,GCACCGCA,0.126
5,AAAGAGTC,-0.265
6,AAGTGTCT,-0.0515
7,ATTTACAG,0.149
8,AAGCAGCT,-0.0912
9,AGAGTCCC,-0.281
10,ATGTGCAC,-0.13
11,ATCTCTTA,-0.0224
12,GGTAGACA,-0.213
13,CTGCTGCC,0.00135
14,CCGCGCGC,0.381
15,ACCCAGTA,-0.223
16,AACCGTGG,-0.00732
17,GTGGAGTA,0.0362
18,ACGTCTCG,-0.102
19,CATTAATA,0.152
20,GCATAGAA,0.133
21,CAAGCGAG,-0.0615
22,CATCCCCA,-0.172
23,AATAGAGA,0.101
24,ACGAACGG,0.258
25,ACGCTAGC,-0.408

row,Sequence,PBM E-score
1,ATGGGAGC,-0.164
2,TAGCCATA,-0.0174
3,AAGAATTG,0.0519
4,GATGCGCC,0.194
5,CAACTGGA,0.0581
6,GACACACC,-0.137
7,TGAGCCAA,-0.0647
8,CTATGCAC,-0.116
9,GCTAGAAA,0.162
10,CCAGACCA,-0.0853
11,GAATGTCA,0.0119
12,CTCACACA,-0.0213
13,AGAATTAC,0.0123
14,CAGAGAGC,-0.148
15,AACGGGCC,-0.0518
16,ACTACGCA,-0.222
17,CAACCATC,-0.23
18,GGTTCGAC,-0.084
19,CGTTCTCA,0.0363
20,CCCTTAGA,-0.296
21,AATGTGTC,0.0247
22,CCATCCCA,-0.0834
23,TGACACAA,0.0576
24,ATGGGTCA,-0.255
25,ACAAATTA,0.226

row,Sequence,PBM E-score
1,ATCTCCCC,-0.378
2,AGTGCATA,-0.115
3,ATACTGCG,-0.0432
4,AGTCACAA,-0.0332
5,CATGGTCC,-0.137
6,CAAGTTGG,0.0131
7,ATCCCATA,-0.158
8,CCCGACAC,-0.302
9,CCAAGCGA,-0.0193
10,AAGCGCGG,0.171
11,ATGAGGAA,-0.0278
12,GTATGAGA,-0.0511
13,CATGCGGC,0.459
14,ATAGCAAA,-0.038
15,GCAAGCCC,-0.132
16,GACCGCGA,-0.0775
17,CCACTCAC,0.037
18,GCGATTAC,-0.0705
19,CATCCTGC,-0.266
20,CAAGATAG,-0.122
21,GGTACAGA,-0.0522
22,GATGCATA,-0.0716
23,ACTGGTGA,-0.207
24,CCCCCCCA,-0.255
25,CCTTAATA,0.0831

row,Sequence,PBM E-score
1,CACTCTCC,-0.0133
2,CTAGAGCC,0.184
3,CCACAACC,0.00543
4,AACCAGCA,-0.207
5,AAGAGAGT,-0.0866
6,CGGAAAAG,0.0534
7,ATTGTCGG,0.0544
8,AACCTTTC,-0.201
9,GCGTGAGA,0.0909
10,ATTTTTGC,0.211
11,GAAGAACC,-0.181
12,AATGAATT,0.167
13,ACTTGTTC,0.0036
14,GCGAGACC,-0.0269
15,GCTGACCA,-0.137
16,CGAGAACG,0.0278
17,ATGTCGCG,0.124
18,AGGGATCC,-0.27
19,AGCACGAG,0.0583
20,GGTATCAA,-0.0075
21,ACAGGACC,-0.156
22,CCTCCCGC,-0.0365
23,TCTCCGCA,-0.0488
24,TATGGGAA,-0.0704
25,AAAAACGA,0.128

row,Sequence,PBM E-score
1,ACTACAAC,0.131
2,CACGCAGA,-0.0561
3,AGACCGAT,-0.178
4,AGCATCCC,-0.307
5,CACATGGG,-0.178
6,GTTGGGGA,-0.215
7,AGTGGGTA,-0.199
8,AGTCTGCG,-0.224
9,GAACGGGC,-0.0577
10,CCTCCTCG,-0.21
11,GAAGCGTC,-0.0144
12,CAGGTACC,-0.233
13,AGCCTGGC,-0.106
14,CGGAACGC,0.0374
15,GCAGGGGA,-0.395
16,GTAGCCCA,-0.0968
17,CACCCCTA,-0.147
18,CTGCCTGC,-0.125
19,AGTAGACC,-0.055
20,GATGCGGC,0.47
21,AGTTTAAC,-0.0287
22,CGAGACTA,-0.219
23,CGCTTGGC,0.0526
24,CCGGAGTC,-0.144
25,CGGACCTC,-0.128

row,Sequence,PBM E-score
1,GCTATAGA,0.0356
2,CAATATGA,-0.0206
3,CACCGCCG,0.147
4,CAAGCTCG,-0.164
5,ATAAACGC,0.0595
6,CCGTTGGC,0.164
7,CTGTATCC,0.00294
8,GCTAAGAC,-0.00858
9,AATCTCTA,-0.0516
10,CGTTGCAA,0.16
11,ATACCCTA,-0.0607
12,GTTCGTCA,-0.108
13,AGCCCTGC,0.0478
14,AGGGCCAT,-0.13
15,CGTGGGGA,-0.2
16,TAAACCGA,-0.0738
17,CCGATCAC,0.0524
18,CTAGGGCC,-0.0363
19,CAGATGAG,-0.00018
20,TACGGCTA,0.349
21,AGCCTTCC,-0.139
22,ATCGGTTC,-0.0639
23,AGCCATGG,-0.0348
24,CTCATGTC,-0.116
25,GCAGGTGA,0.0104

row,Sequence,PBM E-score
1,AACGGCTT,0.366
2,GTAGTTAA,0.106
3,ACTTAGGA,-0.242
4,GCCTTTGA,0.00858
5,GACTGTAA,0.0631
6,GGAGCCCA,-0.207
7,AGAGCTGG,-0.143
8,GGGGCCAA,-0.335
9,AGCTTGGC,-0.159
10,ACTCATTG,-0.196
11,AGCACGCG,0.176
12,ACCGGGAA,0.0212
13,AGGGGTAC,-0.248
14,CTATTCAA,-0.0513
15,GTGACACA,0.0384
16,GGGAGTAA,0.0566
17,CAGACGCG,-0.115
18,CAGGCCAC,-0.0801
19,AGTAGATG,-0.022
